Results reported in the RNAGym collection of RNA variant scans (doi:10.7554/elife.90254).
Read counts are not given, so values of variants with three or more changes are uncertain.

B1: LINE1-full (parent)
chain: UACGUAGGUGGUUUUCCCCUGAUAGUGCUAAGGGGGCCUGGAAGUUUGGACUGGGCAGAGCUCAACACAGCGUGGCAAAGUGGCUGUGGCUAGACUGCCUCUCUGGAUUCCUCGUCACUCAGCAGGGCAUCUCUGAGAGAAAUGCC

Variants of: B1
Test: self-cleavage, relative activity (ratio to wild type); higher = more cleavage; in vitro, sequencing; the parent is a self-cleaving ribozyme

Variant | self-cleavage
U26C A64U G89A | 0.05
U23C U47C C51U U73C A121U | 2.3
U23C A50G A94G C128A | 0
U26C A94C U115A | 0.08
U26C A138G A141G | 1.09
U26C G40A U96A | 0.04
A24U A79U U96A | 0.18
U23C U52C U85C | 0.29
A24G U52A U96A U112C | 0.13
U26A U81C G106A | 1.15
U26C C111U U119A | 1.58
U26A U62A U115A | 0.08
G25A U85A C123U A136G | 0.13
U26C G54U G83A | 0.3
U26A U39A U102C U134A | 2.12
U26C G33U A142G | 1.1
U23C U104C U115A A129G A141G | 0.57
U26A U47A U52C U143C | 1.12
U23C U119C G137U | 1.77
U26A A69G A94G | 0
G25U A59G U81C | 0
U26C A77G U96G U100A C123U | 0
U23C A69G U100C A136G | 0.54
A24U U45A A67G U81C A117U | 0.3

Variant | self-cleavage
U26A U47C A79G C120U U130C A142G | 1.19
A24U U47C A141G | 2.17
A24C G55A A65G G70A C118G | 0.05
A24G A59G G105A | 0.12
U26C C63U A69G A77G U109A U112A U119C | 0.29
U26C G35U U73C U87A A142G | 0.09
U26C G34A A42G | 0.8
U23G G72A U87A G114A | 0.05
A24U A30G U45C | 0.38
U26A A124G A142G | 0.66
U26A U85A A94G U130C | 0.2
U23C U81C A117C A140G | 1.02
U23C A31G A67U | 0.11
G25A U46C U104C | 1.56
A24G U62C U81G C113U | 0.12
U23C G41A U45C A65G U102A | 0.11
U23C A107U A124U | 0.67
U23C A77C U115A | 0.53
U26A G54A U96C U109C | 0.08
U26A A64G U115C | 1.07
U23C A79G C98U | 0
U23A U112C A141G A142G | 1.31
U26A A57C C71U U73A U102C | 0.02
U23C U45G A117G | 1.06

Variant | self-cleavage
G25U A57G A138G | 0.91
U26C U39C G44U U62C | 0.19
U26A A30U U73A | 0.7
A24U U100C U112C | 0
U26A U100C A107G A124U | 1.7
U26C A50G A57U U130C | 0
A24G U85C G88A | 0.11
U26A G32A A57G U102C | 0.15
A24U C71A U109A | 0.07
A24C A129G A136U | 1.15
G25A A78G U119A | 1.06
U23C A79G C99U | 0.86
U23C G48A U112C | 0.98
U23C C61U C99U | 0.02
U23C G54A A67U A124U | 0.02
A24U U45C U115C | 1.11
U23C A30U G44A A59G | 2.4
U26C A78G U119C | 2.04
G25U G35U A79G | 1.03
U26A G88A U102C G139U | 0.13
A24G U73C U100C | 2.3
A24C U62C U85C U132C A140G | 0
U23C U39C A59G U62C A142G | 0
A24G U52A A138G | 1.15

Variant | self-cleavage
U26C G54C A79G G86A C99A U130C | 0.02
U26C A43U A124G | 1.51
U26C G41U A57G U81C | 0.68
U23C A77C U143C | 0.84
A24U G75U U115A A129U A140G | 0.57
U26C A43U U62C G82A | 0.42
A24G A65G U85C U100C G105A U112C U115A C116U | 0
U26C G54U A78G U96C U130C | 0
A24G G25U U47C U115C | 2.55
U23C U26C U104A | 1.23
A24U A57U A77G G105A U132C | 0.29
U23C A43U C76G A140G | 1.31
U26A A31G G105A | 0.94
U26A A42C U73C | 0.32
U23C A57G U130A | 1.58
A24G U46C A141G U143A | 1.25
U23C C28U U62C A79G | 0.08
U26C A43G U132C | 0.42
U26C A77G A107U | 0.38
U26A U73A A140G | 0.54
U26C C66U U87A | 0
A24G A107G A141G | 1.84
U23C A57G A78G C111U A142G | 0.54
U23C U100C U132A | 2.04

Variant | self-cleavage
U23C G33A A43G U81A | 1.16
U26A U39C A42U A67U A79G U87C G137A | 0
A24U C61U A69G | 0.04
U23C U47C U87C A124U | 0
U26A G34A U87C U102C A124U | 0.06
A24G C38A A43U A79G | 1.14
A24G A65G A94G C95A | 0.12
U23C U108C G126A U132C | 1.87
U23C G83A U112C A140G | 0.77
A24G U62C U134C | 0.08
A24U A43G U45A U85C U108A C133U | 0.34
A24U A42G U62C C120U A141G U143C | 0
G25A A107G U115C | 1.84
A24U C56U A141G | 0.14
A24G U96A U112C | 0.04
U26C A94G A142G | 0.56
U26A A42G A79G U81A | 1.65
A24U G32C U108C | 1.88
U26C A59G A142G | 0.1
U26C A57G U143A | 0.69
U23G U73C A77U U85G | 1.31
A24U U47C A64U A92C | 0.19
U26C A136G A141G | 1.44
U26C A79U U134C | 2.79

Variant | self-cleavage
A24G G49U A50G A64U A77U U112C | 0.14
U23C A43U C113U A138G | 1.17
U23C A79G A107G A129G | 0
U23C G114U U115A A121U | 1.36
U26C G33A G70U A92G | 0.07
A24G G27A A42G U46C A57G G70A C133U | 0.25
U26C U29C A67U A136G | 0.38
U26C A69G G88A A138G | 0.07
U26C C37U U85C G125A A129G G144A | 0.3
U26A A30G G44A | 0.77
U23C U52A C68U | 0.25
U26A U100C U134C | 0.94
U23C U39A A124C | 1.37
A24G A79G G127A | 1.13
G25A G33A A43G G125A | 0.8
A24G A57G A59U U130C G139C | 1.5
G25A A107G A124G | 0.86
U26C A92U U132C | 0.7
A24U U47A A50C U85C | 0
A24G U96C U143A | 0.18
A24G A31U A42G G58U U62A G93U | 0.05
U26C G32U U62C | 0.08
U26C A43C C63U A138G | 0.55
U26C U29A A30G A42U U96C | 0.23

Variant | self-cleavage
U26C A117U A141G | 0.71
A24G U26A A69U | 0.05
U26C G32U U47A U73A | 1.49
U23C C38U A92G U96C | 0.13
A24U A50G A57G C63U | 0.16
U26A G53A C103A G126U | 0.61
U26C A78G A124G G125U | 1.73
U26A A79G C118U A142G | 0.78
A24G U73C A117U | 2.02
U26A U73C U132C | 1.25
U26C A65U U109C U134C | 0
U23C U26G U130C A140G | 0.37
U26C G53A A57U A136C | 0.15
G25A U62C A64U | 0.01
A24G U96C U100C | 1.41
U26C G36U A94G U109A A121C A136C | 0.41
G25A U73A U87C | 0.07
G25A A42G U85A | 0.3
U26C A43G A67G A140G | 0
U26A U73G U96C U130A | 0
U26A A117U U119C A124G A142G | 1.07
A24G A64U A138G | 0.74
U23C A30C A50G U143C | 1.15
